# Experimental data taken from the supplement of paper PMC8728848.
# The other results are listed elsewhere or left out.
# Tests used:
# Assay in all cases: glycan array binding signal (z-score within array); higher = stronger binding
# Conditions in all cases: glycan notation: IUPAC condensed, linker removed
# Neu5Ac(a2-3)Gal = target: Neu5Ac(a2-3)Gal
# How it was run: (§1)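 Arrays were curated from the Consortium for Functional Glycomics database, 3228 in total, and kept only where the protein sequence was available. Binding is expressed as a within-array Z-score. This score was averaged across arrays of the same protein sequence at different concentrations or buffers and across linkers, and negative values can be read as non-binding.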
# [1] = target: Neu5Ac(a2-3)Gal(b1-3)GalNAc
# How it was run: as §1
# [2] = target: Neu5Ac(a2-3)Gal(b1-3)GalNAc(b1-3)Gal(a1-4)Gal(b1-4)Glc
# How it was run: as §1
# [3] = target: Neu5Ac(a2-3)Gal(b1-3)GalNAc(b1-4)Gal(b1-4)Glc
# How it was run: as §1
# [4] = target: Neu5Ac(a2-3)Gal(b1-3)GalNAc(b1-4)[Neu5Ac(a2-3)]Gal(b1-4)Glc
# How it was run: as §1
# [5] = target: Neu5Ac(a2-3)Gal(b1-3)GalNAc(b1-4)[Neu5Ac(a2-8)Neu5Ac(a2-3)]Gal(b1-4)Glc
# How it was run: as §1
# [6] = target: Neu5Ac(a2-3)Gal(b1-3)GalNAc6S
# How it was run: as §1
# [7] = target: Neu5Ac(a2-3)Gal(b1-3)GlcNAc
# How it was run: as §1
# [8] = target: Neu5Ac(a2-3)Gal(b1-3)GlcNAc(b1-2)Man
# How it was run: as §1
# [9] = target: Neu5Ac(a2-3)Gal(b1-3)GlcNAc(b1-2)Man(a1-3)[GlcNAc(b1-4)][Neu5Ac(a2-3)Gal(b1-3)GlcNAc(b1-2)Man(a1-6)]Man(b1-4)GlcNAc(b1-4)GlcNAc
# How it was run: as §1
# [10] = target: Neu5Ac(a2-3)Gal(b1-3)GlcNAc(b1-2)Man(a1-3)[Neu5Ac(a2-3)Gal(b1-3)GlcNAc(b1-2)Man(a1-6)]Man(b1-4)GlcNAc(b1-4)GlcNAc
# How it was run: as §1
# [11] = target: Neu5Ac(a2-3)Gal(b1-3)GlcNAc(b1-2)[Neu5Ac(a2-3)Gal(b1-3)GlcNAc(b1-4)]Man(a1-6)[Neu5Ac(a2-3)Gal(b1-3)GlcNAc(b1-2)Man(a1-3)]Man(b1-4)GlcNAc(b1-4)GlcNAc
# How it was run: as §1
# [12] = target: Neu5Ac(a2-3)Gal(b1-3)GlcNAc(b1-3)Gal(b1-3)GlcNAc
# How it was run: as §1
# [13] = target: Neu5Ac(a2-3)Gal(b1-3)GlcNAc(b1-3)Gal(b1-4)GlcNAc
# How it was run: as §1
# [14] = target: Neu5Ac(a2-3)Gal(b1-3)GlcNAc(b1-3)GalNAc
# How it was run: as §1
# [15] = target: Neu5Ac(a2-3)Gal(b1-3)GlcNAc(b1-6)GalNAc
# How it was run: as §1
# [16] = target: Neu5Ac(a2-3)Gal(b1-3)GlcNAc6S
# How it was run: as §1
# [17] = target: Neu5Ac(a2-3)Gal(b1-3)[Fuc(a1-4)]GlcNAc
# How it was run: as §1
# [18] = target: Neu5Ac(a2-3)Gal(b1-3)[Fuc(a1-4)]GlcNAc(b1-3)Gal(b1-3)[Fuc(a1-4)]GlcNAc
# How it was run: as §1
# [19] = target: Neu5Ac(a2-3)Gal(b1-3)[Fuc(a1-4)]GlcNAc(b1-3)Gal(b1-4)[Fuc(a1-3)]GlcNAc
# How it was run: as §1
# [20] = target: Neu5Ac(a2-3)Gal(b1-3)[GlcNAc(b1-6)]GalNAc
# How it was run: as §1
# [21] = target: Neu5Ac(a2-3)Gal(b1-3)[Neu5Ac(a2-6)]GalNAc
# How it was run: as §1
# [22] = target: Neu5Ac(a2-3)Gal(b1-3)[Neu5Ac(a2-6)]GlcNAc(b1-3)[Fuc(a1-3)[Gal(b1-4)]GlcNAc(b1-6)]Gal(b1-4)Glc
# How it was run: as §1
# [23] = target: Neu5Ac(a2-3)Gal(b1-3)]Neu5Ac(a2-3)Gal(b1-4)]GlcNAc
# How it was run: as §1
# Neu5Ac(a2-3)Gal(b1-4)Glc = target: Neu5Ac(a2-3)Gal(b1-4)Glc
# How it was run: as §1
# [24] = target: Neu5Ac(a2-3)Gal(b1-4)GlcNAc
# How it was run: as §1
# [25] = target: Neu5Ac(a2-3)Gal(b1-4)GlcNAc(b1-2)Man
# How it was run: as §1
# [26] = target: Neu5Ac(a2-3)Gal(b1-4)GlcNAc(b1-2)Man(a1-3)[GlcNAc(b1-4)][Neu5Ac(a2-3)Gal(b1-4)GlcNAc(b1-2)Man(a1-6)]Man(b1-4)GlcNAc(b1-4)GlcNAc
# How it was run: as §1
# [27] = target: Neu5Ac(a2-3)Gal(b1-4)GlcNAc(b1-2)Man(a1-3)[Neu5Ac(a2-3)Gal(b1-4)GlcNAc(b1-2)Man(a1-6)]Man(b1-4)GlcNAc(b1-4)GlcNAc
# How it was run: as §1
# [28] = target: Neu5Ac(a2-3)Gal(b1-4)GlcNAc(b1-2)Man(a1-3)[Neu5Ac(a2-3)Gal(b1-4)GlcNAc(b1-2)Man(a1-6)]Man(b1-4)GlcNAc(b1-4)[Fuc(a1-6)]GlcNAc
# How it was run: as §1
# [29] = target: Neu5Ac(a2-3)Gal(b1-4)GlcNAc(b1-2)Man(a1-3)[Neu5Ac(a2-6)Gal(b1-4)GlcNAc(b1-2)Man(a1-6)]Man(b1-4)GlcNAc(b1-4)GlcNAc
# How it was run: as §1
# [30] = target: Neu5Ac(a2-3)Gal(b1-4)GlcNAc(b1-2)[Neu5Ac(a2-3)Gal(b1-4)GlcNAc(b1-4)]Man(a1-3)[GlcNAc(b1-4)][Neu5Ac(a2-3)Gal(b1-4)GlcNAc(b1-2)[Neu5Ac(a2-3)Gal(b1-4)GlcNAc(b1-6)]Man(a1-6)]Man(b1-4)GlcNAc(b1-4)GlcNAc
# How it was run: as §1
# [31] = target: Neu5Ac(a2-3)Gal(b1-4)GlcNAc(b1-2)[Neu5Ac(a2-3)Gal(b1-4)GlcNAc(b1-4)]Man(a1-3)[GlcNAc(b1-4)][Neu5Ac(a2-3)Gal(b1-4)GlcNAc(b1-4)Man(a1-6)]Man(b1-4)GlcNAc(b1-4)GlcNAc
# How it was run: as §1
# [32] = target: Neu5Ac(a2-3)Gal(b1-4)GlcNAc(b1-2)[Neu5Ac(a2-3)Gal(b1-4)GlcNAc(b1-6)]Man(a1-6)[Neu5Ac(a2-3)Gal(b1-4)GlcNAc(b1-2)Man(a1-3)][GlcNAc(b1-4)]Man(b1-4)GlcNAc(b1-4)GlcNAc
# How it was run: as §1
# [33] = target: Neu5Ac(a2-3)Gal(b1-4)GlcNAc(b1-3)Gal
# How it was run: as §1
# [34] = target: Neu5Ac(a2-3)Gal(b1-4)GlcNAc(b1-3)Gal(b1-3)GlcNAc
# How it was run: as §1
# [35] = target: Neu5Ac(a2-3)Gal(b1-4)GlcNAc(b1-3)Gal(b1-4)GlcNAc
# How it was run: as §1
# [36] = target: Neu5Ac(a2-3)Gal(b1-4)GlcNAc(b1-3)Gal(b1-4)GlcNAc(b1-2)Man(a1-3)[Neu5Ac(a2-3)Gal(b1-4)GlcNAc(b1-3)Gal(b1-4)GlcNAc(b1-2)Man(a1-6)]Man(b1-4)GlcNAc(b1-4)GlcNAc
# How it was run: as §1
# [37] = target: Neu5Ac(a2-3)Gal(b1-4)GlcNAc(b1-3)Gal(b1-4)GlcNAc(b1-3)Gal(b1-4)GlcNAc
# How it was run: as §1
# [38] = target: Neu5Ac(a2-3)Gal(b1-4)GlcNAc(b1-3)Gal(b1-4)GlcNAc(b1-3)Gal(b1-4)GlcNAc(b1-2)Man(a1-3)[Neu5Ac(a2-3)Gal(b1-4)GlcNAc(b1-3)Gal(b1-4)GlcNAc(b1-3)Gal(b1-4)GlcNAc(b1-2)Man(a1-6)]GalNAc
# How it was run: as §1
# [39] = target: Neu5Ac(a2-3)Gal(b1-4)GlcNAc(b1-3)Gal(b1-4)GlcNAc(b1-3)GalNAc
# How it was run: as §1
# [40] = target: Neu5Ac(a2-3)Gal(b1-4)GlcNAc(b1-3)Gal(b1-4)GlcNAc(b1-3)[Neu5Ac(a2-3)Gal(b1-4)GlcNAc(b1-3)Gal(b1-4)GlcNAc(b1-6)]GalNAc
# How it was run: as §1
# [41] = target: Neu5Ac(a2-3)Gal(b1-4)GlcNAc(b1-3)Gal(b1-4)GlcNAc(b1-6)[Gal(b1-3)]GalNAc
# How it was run: as §1
# [42] = target: Neu5Ac(a2-3)Gal(b1-4)GlcNAc(b1-3)Gal(b1-4)[Fuc(a1-3)]GlcNAc
# How it was run: as §1
# [43] = target: Neu5Ac(a2-3)Gal(b1-4)GlcNAc(b1-3)GalNAc
# How it was run: as §1
binder,measurement,setting,value
MpAFP NterminalRI GFP (Marinomonas primoryensis) (protein) MSDNQFPFATLGNAIGFITKLDGSVTVQSIDGQERVLKLGDPIFFGETVLTGGSGSVTIAFVDGTDVVIGGDSIVEMTDEIYNTGDNEDLVADSSSEIDALQNAILAGDDPTLIQDAPAAGNTLADQQRVDVSIERNDNSAQAGFGVDTQSSLPTYGYDTDNGNGGQATEREYSAPSLSRTLNQSPLLEHHHHHH,glycan array binding signal (z-score),Neu5Ac(a2-3)Gal,-0.398
same,glycan array binding signal (z-score),[1],-0.125
same,glycan array binding signal (z-score),[2],-0.494
same,glycan array binding signal (z-score),[3],-0.428
same,glycan array binding signal (z-score),[4],-0.314
same,glycan array binding signal (z-score),[5],-0.446
same,glycan array binding signal (z-score),[6],-0.078
same,glycan array binding signal (z-score),[7],-0.477
same,glycan array binding signal (z-score),[8],-0.458
same,glycan array binding signal (z-score),[9],-0.144
same,glycan array binding signal (z-score),[10],2.29
same,glycan array binding signal (z-score),[11],0.13
same,glycan array binding signal (z-score),[12],-0.568
same,glycan array binding signal (z-score),[13],-0.057
same,glycan array binding signal (z-score),[14],-0.388
same,glycan array binding signal (z-score),[15],-0.009
same,glycan array binding signal (z-score),[16],0.339
same,glycan array binding signal (z-score),[17],-0.583
same,glycan array binding signal (z-score),[18],-0.313
same,glycan array binding signal (z-score),[19],-0.29
same,glycan array binding signal (z-score),[20],-0.478
same,glycan array binding signal (z-score),[21],-0.42
same,glycan array binding signal (z-score),[22],-0.298
same,glycan array binding signal (z-score),[23],-0.531
same,glycan array binding signal (z-score),Neu5Ac(a2-3)Gal(b1-4)Glc,-0.445
same,glycan array binding signal (z-score),[24],1.08
same,glycan array binding signal (z-score),[25],0.832
same,glycan array binding signal (z-score),[26],-0.253
same,glycan array binding signal (z-score),[27],-0.072
same,glycan array binding signal (z-score),[28],-0.065
same,glycan array binding signal (z-score),[29],1.33
same,glycan array binding signal (z-score),[30],-0.553
same,glycan array binding signal (z-score),[31],-0.406
same,glycan array binding signal (z-score),[32],0.624
same,glycan array binding signal (z-score),[33],-0.472
same,glycan array binding signal (z-score),[34],-0.607
same,glycan array binding signal (z-score),[35],-0.045
same,glycan array binding signal (z-score),[36],-0.068
same,glycan array binding signal (z-score),[37],-0.515
same,glycan array binding signal (z-score),[38],2.98
same,glycan array binding signal (z-score),[39],-0.284
same,glycan array binding signal (z-score),[40],0.074
same,glycan array binding signal (z-score),[41],-0.133
same,glycan array binding signal (z-score),[42],-0.372
same,glycan array binding signal (z-score),[43],-0.439
